Sequences and labels used below:
B1: DVD3174 (bispecific antibody, human IgG1, kappa)
heavy: EVQLVQSGAEVKKPGASVKVSCKASGYTFNNYGIIWVRQAPGQGLEWMGWINTYTGKPTYAQKFQGRVTMTTDTSTSTAYMELSSLRSEDTAVYYCARKLFNTVAVTDNAMDYWGQGTTVTVSSASTKGPEVQLVQSGAEVKKPGASVKVSCKASGYTFTSYWMHWVRQAPGQGLEWIGNINPKGGSNIYNEKFQGRVTMTRDTSISTAYMELSRLRSDDTAVYYCARLDYFGDSFDLWGQGTTVTVSS[here human IgG1 constant region without letters]
light: DIQMTQSPSSLSASVGDRVTITCRASQDIENYLNWYQQKPGKAPKLLIYYTSRLQSGVPSRFSGSGSGTDFTLTISSLQPEDFATYFCQQGNTQPPTFGQGTKLEIKRTVAAPDIQMTQSPSSLSASVGDRVTITCRASQGIRNYLNWYQQKPGKAPKLLIYYASNLEVGVPSRFSGSGSGTDYTLTISSLQPEDFATYYCQQDNRFPYTFGGGTKVEIKRTVAAPSVFIFPPSDEQLKSGTASVVCLLNNFYPREAKVQWKVDNALQSGNSQESVTEQDSKDSTYSLSSTLTLSKADYEKHKVYACEVTHQGLSSPVTKSFNRGEC
B2: DVD3167 (bispecific antibody, human IgG1, kappa)
heavy: EVQLVQSGAEVKKPGASVKVSCKASGYTFANYGIIWVRQAPGQGLEWMGWINTYTGKPTYAQKFQGRVTMTTDTSTSTAYMELSSLRSEDTAVYYCARKLFTTMDVTDNAMDYWGQGTTVTVSSASTKGPSVFPLAPEVQLVQSGAEVKKPGASVKVSCKASGYTFTSYWMHWVRQAPGQGLEWIGNINPKGGSNIYNEKFQGRVTMTRDTSISTAYMELSRLRSDDTAVYYCARLDYFGDSFDLWGQGTTVTVSS[here human IgG1 constant region without letters]
light: DIQMTQSPSSLSASVGDRVTITCRASQDISQYLNWYQQKPGKAPKLLIYYTSRLQSGVPSRFSGSGSGTDFTLTISSLQPEDFATYFCQQGNTWPPTFGQGTKLEIKRTVAAPDIQMTQSPSSLSASVGDRVTITCRASQGIRNYLNWYQQKPGKAPKLLIYYASNLEVGVPSRFSGSGSGTDYTLTISSLQPEDFATYYCQQDNRFPYTFGGGTKVEIKRTVAAPSVFIFPPSDEQLKSGTASVVCLLNNFYPREAKVQWKVDNALQSGNSQESVTEQDSKDSTYSLSSTLTLSKADYEKHKVYACEVTHQGLSSPVTKSFNRGEC
B3: DVD3177 (bispecific antibody, human IgG1, kappa)
heavy: EVQLVQSGAEVKKPGASVKVSCKASGYTFNNYGIIWVRQAPGQGLEWMGWINTYTGKPTYAQKFQGRVTMTTDTSTSTAYMELSSLRSEDTAVYYCARKLFNTVAVTDNAMDYWGQGTTVTVSSASTKGPSVFPLAPEVQLVQSGAEVKKPGASVKVSCKASGYTFTSYWMHWVRQAPGQGLEWIGNINPKGGSNIYNEKFQGRVTMTRDTSISTAYMELSRLRSDDTAVYYCARLDYFGDSFDLWGQGTTVTVSS[here human IgG1 constant region without letters]
light: DIQMTQSPSSLSASVGDRVTITCRASQDIENYLNWYQQKPGKAPKLLIYYTSRLQSGVPSRFSGSGSGTDFTLTISSLQPEDFATYFCQQGNTQPPTFGQGTKLEIKRTVAAPDIQMTQSPSSLSASVGDRVTITCRASQGIRNYLNWYQQKPGKAPKLLIYYASNLEVGVPSRFSGSGSGTDYTLTISSLQPEDFATYYCQQDNRFPYTFGGGTKVEIKRTVAAPSVFIFPPSDEQLKSGTASVVCLLNNFYPREAKVQWKVDNALQSGNSQESVTEQDSKDSTYSLSSTLTLSKADYEKHKVYACEVTHQGLSSPVTKSFNRGEC
B4: DVD3166 (bispecific antibody, human IgG1, kappa)
heavy: EVQLVQSGAEVKKPGASVKVSCKASGYTFANYGIIWVRQAPGQGLEWMGWINTYTGKPTYAQKFQGRVTMTTDTSTSTAYMELSSLRSEDTAVYYCARKLFTTMDVTDNAMDYWGQGTTVTVSSASTKGPEVQLVQSGAEVKKPGASVKVSCKASGYTFTSYWMHWVRQAPGQGLEWIGNINPKGGSNIYNEKFQGRVTMTRDTSISTAYMELSRLRSDDTAVYYCARLDYFGDSFDLWGQGTTVTVSS[here human IgG1 constant region without letters]
light: DIQMTQSPSSLSASVGDRVTITCRASQDISQYLNWYQQKPGKAPKLLIYYTSRLQSGVPSRFSGSGSGTDFTLTISSLQPEDFATYFCQQGNTWPPTFGQGTKLEIKRTVAAPSVFIFPPDIQMTQSPSSLSASVGDRVTITCRASQGIRNYLNWYQQKPGKAPKLLIYYASNLEVGVPSRFSGSGSGTDYTLTISSLQPEDFATYYCQQDNRFPYTFGGGTKVEIKRTVAAPSVFIFPPSDEQLKSGTASVVCLLNNFYPREAKVQWKVDNALQSGNSQESVTEQDSKDSTYSLSSTLTLSKADYEKHKVYACEVTHQGLSSPVTKSFNRGEC
notes: DVD-Ig: outer AB441 (TNF), inner AB399 (IL-13); linkers HG-short/LK-long; also called DVD3166H; DVD3166L
B5: DVD3176 (bispecific antibody, human IgG1, kappa)
heavy: EVQLVQSGAEVKKPGASVKVSCKASGYTFNNYGIIWVRQAPGQGLEWMGWINTYTGKPTYAQKFQGRVTMTTDTSTSTAYMELSSLRSEDTAVYYCARKLFNTVAVTDNAMDYWGQGTTVTVSSASTKGPEVQLVQSGAEVKKPGASVKVSCKASGYTFTSYWMHWVRQAPGQGLEWIGNINPKGGSNIYNEKFQGRVTMTRDTSISTAYMELSRLRSDDTAVYYCARLDYFGDSFDLWGQGTTVTVSS[here human IgG1 constant region without letters]
light: DIQMTQSPSSLSASVGDRVTITCRASQDIENYLNWYQQKPGKAPKLLIYYTSRLQSGVPSRFSGSGSGTDFTLTISSLQPEDFATYFCQQGNTQPPTFGQGTKLEIKRTVAAPSVFIFPPDIQMTQSPSSLSASVGDRVTITCRASQGIRNYLNWYQQKPGKAPKLLIYYASNLEVGVPSRFSGSGSGTDYTLTISSLQPEDFATYYCQQDNRFPYTFGGGTKVEIKRTVAAPSVFIFPPSDEQLKSGTASVVCLLNNFYPREAKVQWKVDNALQSGNSQESVTEQDSKDSTYSLSSTLTLSKADYEKHKVYACEVTHQGLSSPVTKSFNRGEC

In the experiment the target is Recombinant Human IL-13 (human, UniProt P35225 partial chain, limits assumed). Nature of the experiment: cell-based or functional assay.
UniProt P35225, sequence (P35225 35-146 limits assumed): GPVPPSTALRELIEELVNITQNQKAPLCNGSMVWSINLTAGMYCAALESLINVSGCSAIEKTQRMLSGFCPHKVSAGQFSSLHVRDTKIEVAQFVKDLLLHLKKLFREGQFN
In the case of B1, the “IL-13 Neutralization Assay IC50” value is 0.527 nM. Under B2 stands 0.046 nM; under B3, 0.078 nM; under B4, 0.072 nM. With B5, the “IL-13 Neutralization Assay IC50” value was found to be 0.152 nM.

For the origin of these results see patent US20140271457A1 (AbbVie / Abbott, published 2014).
